Test results from the supplement of paper PMC10326071.
The list shows a part of the results. Many values rest on one well or one pass, so single values are uncertain.

Experiments:
[1] = system: SARS-CoV-2 nsp3 SARS-unique domain core (SUD-core, nsp3 residues 413-676); experiment: dissociation rate constant koff (BLI); higher = faster dissociation; conditions: 100 µM; 25 °C
[2] = system: SARS-CoV-2 nsp3 SARS-unique domain core (SUD-core, nsp3 residues 413-676); experiment: apparent dissociation constant Kd (single-concentration BLI fit); higher = weaker binding; conditions: 100 µM; 25 °C

Structure (SMILES) | dissociation rate constant koff [1] [s⁻¹] | apparent dissociation constant Kd [2] [µM]
Nc1ncnc2c1ncn2[C@H]1CC[C@@H](CO)O1 | 0.0151 | 138
CCCCCCCCCCCCCCCCOP(=O)([O-])OCC[N+](C)(C)C | 0.0351 | 370
N#C/C(=C(/N)Sc1ccc(N)cc1)c1ccccc1C(F)(F)F | 0.655 | 1700
CCN1CCN(C(=O)Cc2ccc(Nc3ncc(F)c(Nc4ccc(C(=O)Nc5ccccc5Cl)cc4)n3)cc2)CC1 | 0.00547 | 40.6
NC(=O)c1ncn([C@@H]2O[C@H](CO)[C@@H](O)[C@H]2O)n1 | 0.0106 | 56.5
Cc1nc2c(NCc3cccc(S(C)(=O)=O)c3)nccn2c1-c1ccc(O)c(F)c1 | 1.14 | 1760
COc1cc2nc(C)nc(N[C@H](C)c3cc(N)cc(C(F)(F)F)c3)c2cc1O[C@H]1CCOC1 | 1.08 | 2100
C=C1[C@H](CO)[C@@H](O)C[C@@H]1n1cnc2c(=O)[nH]c(N)nc21 | 0.0258 | 202
C[C@H](c1ccnc(Nc2nc3ccc(-c4cc(N(C)C)ncn4)cc3[nH]2)c1)N1CCN(C(=O)CC(F)(F)F)CC1 | 0.0146 | 36.7
COc1ncc(-c2ccc3ncc(Cl)c(=O)n3c2)cc1NS(=O)(=O)c1ccc(F)cc1F | 0.0941 | 50.6
CCC(=O)N1CCN(c2ccc(-n3c(=O)ccc4cnc5ccc(-c6cnc7ccccc7c6)cc5c43)cc2C(F)(F)F)CC1 | 0.0642 | 23
O=c1cc(N2CCOCC2)oc2c(-c3ccc4c(c3)OCCO4)csc12 | 0.358 | 3190
O=c1[nH]cc(F)c(=O)[nH]1 | 0.00736 | 25.5
CN1CCN(Cc2ccc(NC(=O)Nc3ccc(Oc4ccnc(N)n4)cc3)cc2C(F)(F)F)CC1 | 0.232 | 2260
Oc1cc(O)cc(/C=C/c2ccc(O)c(O)c2)c1 | 0.00256 | 28
Fc1ccc2[nH]ccc2c1-c1nc(N2CCOCC2)c2sc(CN3CCN(CC4CC4)CC3)cc2n1 | 0.411 | 1340
COc1nc(N)nc2c1ncn2[C@@H]1O[C@H](CO)[C@@H](O)[C@@H]1O | 0.0184 | 10300

Structure (SMILES) | dissociation rate constant koff [1] [s⁻¹] | apparent dissociation constant Kd [2] [µM]
COc1cc2c(cc1F)C(c1ccccc1Cl)=Nc1c(n[nH]c1C)N2 | 0.237 | 62.6
CN1CCC(COc2cnc(-c3cccc(Cn4nc(-c5cccc(C#N)c5)ccc4=O)c3)nc2)CC1 | 19.7 | 27.4
O=c1[nH]c2ccccc2n1C1CCN(Cc2ccc(-c3[nH]c4cc5ncnc5cc4nc3-c3ccccc3)cc2)CC1 | 0.0291 | 56500
C=CC(=O)Nc1ccc(CN2C(=O)N(c3cc(OC)cc(OC)c3)Cc3cnc(Nc4ccc(N5CCN(C)CC5)cc4)nc32)cc1 | 2.18 | 1660
Cc1c(-c2c(F)cc(C(N)=O)c3[nH]c4c(c23)CC[C@H](C(C)(C)O)C4)cccc1-n1c(=O)c2cccc(F)c2n(C)c1=O | 0.114 | 2450
O=C(O)[C@H]1O[C@@H](Oc2cc3oc(-c4ccc(O)cc4)cc(=O)c3c(O)c2O)[C@H](O)[C@@H](O)[C@@H]1O | 0.103 | 2960
C=C(CCC=C(C)C)[C@H]1CC[C@]2(C)[C@@H]1[C@H](O)C[C@@H]1[C@@]3(C)CC[C@H](O[C@@H]4O[C@H](CO)[C@@H](O)[C@H](O)[C@H]4O[C@@H]4O[C@H](CO)[C@@H](O)[C@H](O)[C@H]4O)C(C)(C)[C@@H]3CC[C@]12C | 0.0067 | 24.5
O=C(NCCCNc1nc(Nc2cccc(CN3CCOCC3)c2)ncc1C1CC1)C1CCC1 | 0.158 | 92.7
CCN(CC)CCOc1ccc(Nc2nc(-c3ccccc3NC(=O)CCN3CCN(C)CC3)nc3ccccc23)cc1 | 0.927 | 2030
C/C(=C\CNc1ncnc2c1ncn2[C@@H]1O[C@H](CO)[C@@H](O)[C@H]1O)CO | 0.0133 | 110
CC(=O)NCC(=O)N1[C@@H]2CC[C@H]1c1ccc(Nc3ncc(C(F)(F)F)c(NC4CCC4)n3)cc12 | 0.271 | 1590
C[C@@H](Oc1cc(-n2cnc3ccc(CN4CCN(C)CC4)cc32)sc1C(N)=O)c1ccccc1C(F)(F)F | 0.502 | 1490
CNC(=O)c1cc(Oc2ccc(NC(=O)Nc3cc(C(C)(C)C)nn3-c3ccc4ncccc4c3)c(F)c2)ccn1 | 0.0631 | 12800
CCN1C(C)(C)CC(Oc2ccc(C(=O)Nc3ccc(NC(=O)Nc4cc(C(C)(C)C)on4)cc3)nc2)CC1(C)C | 0.0418 | 20.6
COc1ccc(Cl)cc1NC(=O)Nc1cc(C)nc2ccccc12 | 0.0188 | 146
CCCCCC1CC1CC1CC1CCCCCCCC(=O)OC (stereo unspecified) | 0.00126 | 957
